In all, about 270,000 compounds went through this assay and about 5,800 (2.1%) were called active. Inconclusive means that the source gave no clear call. Such entries were picked first, then a sample of the others. Calls follow the shape of the dose curve; as a rule, active = well fitted inhibition curve with a large enough effect; inconclusive = small, poorly fitted or top-dose-only effect; inactive = flat fitted curve, though single readings scatter. Potencies beside an inconclusive call are fits to weak or partial responses and may not hold up. A structure can be active in one record and inactive in another.
target: Microtubule-associated protein tau (Homo sapiens) (UniProt P10636); test: qHTS for Inhibitors of Tau Fibril Formation, Thioflavin T Binding; conditions: recombinant tau K18 P301L (four-repeat tau fragment), heparin-induced fibrillization, ThT fluorescence; series mostly up to 57.4 µM; also: nearly all actives have a fitted effect of over 55% in size
Procedure, shortened: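 K18 P301L tau (15 uM + 0.24 uM Alexa 594-tagged), heparin 20 uM, NaOAc pH 7, 6 h 37 C; ThT 30 uM, 1 h RT, ex 450/em 510 nm.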
% is scaled to controls: 0 for no effect and ±100 for the full control effect; potency is read from the fitted curve at half-maximal effect; tags tell the direction and shape of the fitted curve.

UniProt P10636, sequence (P10636 whole entry, looked up, the tested form may be a part): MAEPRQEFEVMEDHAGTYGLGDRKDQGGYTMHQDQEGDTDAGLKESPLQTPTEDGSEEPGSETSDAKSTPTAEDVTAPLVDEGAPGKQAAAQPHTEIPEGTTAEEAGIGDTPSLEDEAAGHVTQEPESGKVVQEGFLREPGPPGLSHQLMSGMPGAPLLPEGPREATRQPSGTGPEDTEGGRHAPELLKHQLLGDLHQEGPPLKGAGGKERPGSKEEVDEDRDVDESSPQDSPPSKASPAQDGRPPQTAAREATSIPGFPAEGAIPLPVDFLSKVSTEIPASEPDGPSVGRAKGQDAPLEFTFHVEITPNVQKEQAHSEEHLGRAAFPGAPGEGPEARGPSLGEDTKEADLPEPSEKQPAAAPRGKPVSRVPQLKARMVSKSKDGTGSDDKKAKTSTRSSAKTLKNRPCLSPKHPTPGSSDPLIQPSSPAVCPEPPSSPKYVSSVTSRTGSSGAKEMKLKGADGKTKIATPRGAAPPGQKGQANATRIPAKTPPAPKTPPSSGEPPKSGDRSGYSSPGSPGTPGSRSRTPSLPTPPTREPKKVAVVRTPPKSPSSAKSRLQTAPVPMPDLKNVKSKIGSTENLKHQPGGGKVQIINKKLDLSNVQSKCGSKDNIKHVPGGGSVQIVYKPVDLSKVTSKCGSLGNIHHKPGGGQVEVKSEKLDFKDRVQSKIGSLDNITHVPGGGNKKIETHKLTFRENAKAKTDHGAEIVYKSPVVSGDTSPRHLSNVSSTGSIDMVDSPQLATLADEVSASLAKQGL

SMILES | Potency | activity, negative = inhibition
O=[N+]([O-])c1cc(-c2ncccn2)c([N+](=O)[O-])s1 | active: 11.2 µM | –
NS(=O)(=O)c1cccc(NC(=O)CCSc2ccc(Cl)cc2)c1 | inactive | –
Cc1cc(Nc2ccccc2C)n2nc(Cc3ccc(Cl)cc3)nc2n1 | inactive | –
Cc1ccn2c(Nc3ccc4c(c3)OCCO4)c(-c3ccc(C)o3)nc2c1 | inconclusive: 14.1 µM [inhibitor, partial curve] | –
CCc1ccc(NCc2nc3ccccc3c(=O)[nH]2)cc1 | inconclusive: 15.8 µM [inhibitor, partial curve] | –
Cn1c(CN2CCCC2)nc2cc(NC(=O)COc3ccc([N+](=O)[O-])cc3)ccc21 | inconclusive: 14.1 µM [inhibitor, partial curve] | –
CC(=O)c1ccc(NC(=O)c2ccc3c(c2)N(Cc2cccc(Cl)c2)C(=O)c2ccccc2S3=O)cc1 (configuration not stated) | inconclusive: 14.1 µM [activator, partial curve] | –
CCOc1ccc(Cc2onc3c2C(=O)CC(C)(C)C3)cc1OCC | inactive | –
CC/C=C\C/C=C\C/C=C\CCCCCCCC(=O)O | active: 28.2 µM | –
Cc1cccc(CSc2nnc(CCCCCNC(=O)OC(C)(C)C)o2)c1 | inconclusive: 35.5 µM [inhibitor, partial curve] | –
O=C/C(=C\Nc1ccc(S(=O)(=O)CCO)cc1)c1nc2cc(Cl)ccc2o1 | inconclusive: 39.8 µM [inhibitor, single point] | –
Nn1c(Nc2ccccc2)nc2sc3c(c2c1=O)CCC3 | active: 20 µM | –
CN(C)CCCNc1cc(N2CCN(C3CCCCC3)CC2)c2noc3c2c1C(=O)c1ccccc1-3 | active: 3.55 µM | –
Cc1ccccc1OCCSc1nc2ccc(NC(=O)c3cccc(F)c3)cc2s1 | inconclusive: 20 µM [activator, single point] | –
CCCOc1ccc(C2C(C(=O)/C=C/c3ccco3)=C(O)C(=O)N2CCN2CCOCC2)cc1OC (configuration not stated) | inconclusive: 25.1 µM [inhibitor, partial curve] | –
CC(=O)Nc1ccc(-c2ccc(NC(C)=O)c(O)c2)cc1O | inconclusive: 14.1 µM [inhibitor, partial curve, poor fit] | –
COc1cc(Cl)c(NC(=O)c2cc3ccccn3n2)c(OC)c1 | inconclusive: 11.2 µM [inhibitor, partial curve] | –
O=C(CSc1ncn[nH]1)NC1CC2CCC1C2 (configuration not stated) | inactive | –
Cc1nc2ccccn2c(=O)c1NC(=O)c1ccc(F)c(F)c1 | inactive | –
CN(C)c1ccc(N=Cc2nc(-c3ccccc3)oc2OC(=O)c2cccc(Cl)c2)cc1 | active: 7.94 µM | –
O=C(N/C(=C/c1cccc(Br)c1)c1nc(=S)[nH][nH]1)c1ccccc1 | inconclusive: 15.8 µM [inhibitor, partial curve] | –
O=C(CCN1CCN(c2ccccc2F)CC1)c1ccc(Br)cc1 | inactive | –
CC1CCc2c(sc(N)c2C(N)=O)C1 (configuration not stated) | inconclusive: 31.6 µM [inhibitor, partial curve] | –

SMILES | Potency | activity, negative = inhibition
CC1CCC2C(=O)N3C(CCC(C)[C@@H]3c3ccc(Br)cc3)C(=O)N2C1c1ccc(Br)cc1 (some centres not stated) | – | inactive: -7.7% [at 11.5 µM]
COc1ccc(-c2cc(COc3ccccc3)on2)cc1 | inconclusive: 3.16 µM [inhibitor, full curve] | –
Cc1cccc(C)c1NC1=C(Cl)C(=O)OC1OC(=O)c1ccccc1 (configuration not stated) | inactive | –
Cc1nc2c(ccc3nc(NC(=O)C4CC4)sc32)s1 | inconclusive: 15.8 µM [inhibitor, partial curve] | –
CCN(CC)S(=O)(=O)c1cccc(NC(=O)COC(=O)C2CC3C=CC2C3)c1 (configuration not stated) | inactive | –
O=C(OCC(=O)c1ccc(Cl)cc1Cl)c1ccc2c(c1)C(=O)N(c1cccc3ncccc13)C2=O | inconclusive: 8.91 µM [inhibitor, partial curve] | –
Cn1c(=O)oc2cc(S(=O)(=O)CCC(=O)N3CCN(c4cccc(Cl)c4)CC3)ccc21 | inactive | –
O=C(c1ccccc1)c1cc(-c2ccccc2)on1 | inconclusive: 10 µM [inhibitor, partial curve] | –
CC(=O)Nc1sc(N/N=C/c2ccc(C)cc2)nc1-c1ccc(C)cc1 | inconclusive: 7.94 µM [inhibitor, full curve] | –
N#C/C(=C\c1ccc(OC(=O)c2ccc(Cl)s2)cc1)c1nc2ccccc2[nH]1 | inconclusive: 2.24 µM [inhibitor, full curve] | –
CCCN(CCC)c1ccc(C2N=C(N)Nc3nc4ccccc4n32)cc1 (configuration not stated) | inconclusive: 22.4 µM [inhibitor, single point] | –
CCOc1cc(C(=O)Nc2ccc(-c3cn4cccnc4n3)cc2)cc(OCC)c1OCC | inconclusive: 0.0282 µM [inhibitor, full curve] | –
CNc1nc2sc3c(c2c(=O)n1C)CC(C)(C)SC3 | inconclusive: 39.8 µM [inhibitor, single point] | –
Cc1ccc(CCNC(=O)c2ccc3nc(N4CCC(C)CC4)sc3c2)cc1 | inconclusive: 0.708 µM [inhibitor, full curve, poor fit] | –
CCOc1ccc(C2CC(=O)Nc3nc(SCc4ccccc4C)[nH]c(=O)c32)cc1OC (configuration not stated) | inactive | –
Cc1ccc(S(=O)(=O)N(C)c2ccccc2C(=O)Nc2ccc3c(c2)OCCO3)cc1 | inconclusive: 44.7 µM [inhibitor, single point] | –
O=C(CSc1ccc(Cl)cc1)N1CCN(c2ccc(Cl)cc2[N+](=O)[O-])CC1 | inconclusive: 6.31 µM [inhibitor, partial curve] | –
COC(=O)c1cc(NC(=O)c2ccccc2)c(=O)oc1C/C=N\OCc1ccc(Cl)cc1Cl | inconclusive: 28.2 µM [inhibitor, single point] | –
COCCCNC(=O)Cn1cnc2sc(C)c(S(=O)(=O)N3CCC(C)CC3)c2c1=O | inactive | –
CC1CCC2C(=O)N(c3ccc(C(=O)Oc4cccc5cccnc45)cc3)C(=O)C2C1 (configuration not stated) | inconclusive: 14.1 µM [inhibitor, partial curve] | –
CC[C@@H]1C(c2ccccc2)=NN(c2ccc(Br)cc2)[C@H]1C(=O)N1CCOC1=O | inconclusive: 28.2 µM [inhibitor, partial curve] | –
Cc1ccc(C)c(NC(=O)n2ncc3cc(Cl)ccc32)c1 | inconclusive: 25.1 µM [inhibitor, partial curve] | –
O=C(CCC1CCCC1)N1CCC(N2CCN(c3ccccc3)CC2)CC1 | inconclusive: 39.8 µM [inhibitor, partial curve] | –

SMILES | Potency | activity, negative = inhibition
CCOC(=O)C1(CC2CCCCO2)CCN(C(=O)Nc2ccc(SC)cc2)CC1 (configuration not stated) | inconclusive: 22.4 µM [inhibitor, partial curve, poor fit] | –
CC(NC(=O)CCSCCC(=O)NC(C)c1ccccc1)c1ccccc1 (configuration not stated) | inconclusive: 5.01 µM [inhibitor, single point] | –
CCCCCc1cc(=O)oc2c(C(CCN3CCCCC3)c3ccc(OC)cc3)c(OC)cc(OC)c12 (configuration not stated) | inactive | –
O=C(Nc1ccccc1N1CCN(c2ccccc2)CC1)c1cccc(F)c1 | inconclusive: 22.4 µM [inhibitor, partial curve] | –
COc1cc(C)nc(N2CCCC(C(=O)Nc3cccc(Cl)c3C)C2)n1 (configuration not stated) | inconclusive: 39.8 µM [activator, single point] | –
Fc1ccc(N2CCN(Cc3cn[nH]c3-c3ccccc3)CC2)cc1 | inactive | –
N=C(N)SCc1cn(-c2ccccc2)nc1-c1ccc(Br)cc1 | inconclusive: 31.6 µM [activator, single point] | –
O=C(c1nc2nc(-c3cccs3)cc(C(F)(F)F)n2n1)N1CCN(Cc2ccccc2)CC1 | inconclusive: 39.8 µM [inhibitor, single point] | –
COc1cc(/C=N/NC(=O)CC2(C)OCCCO2)ccc1OCc1ccc(Cl)cc1Cl | inconclusive: 15.8 µM [inhibitor, partial curve, poor fit] | –
C/C(=N\Nc1nc2ccc(Cl)cc2o1)c1ccccc1 | inconclusive: 2.24 µM [inhibitor, full curve] | –
C#CCOCCOCCOCCNc1nc(N2CCN(C(=O)[C@H](Cc3ccc(O)cc3)n3cc([C@@H](N)C(C)CC)nn3)CC2)nc(N2CCN(C(=O)[C@H](Cc3cc4ccccc4[nH]3)n3cc([C@@H](N)Cc4ccc(O)cc4)nn3)CC2)n1 (some centres not stated) | inconclusive: 39.8 µM [inhibitor, single point] | –
Nc1cccc2c1C(=O)N(C(=O)/C=C/c1cccc(F)c1)C2=O | active: 14.1 µM | –
O=C(c1cnc2ccc3ccccc3c2c1)c1cc(F)ccc1O | inconclusive: 17.8 µM [inhibitor, partial curve] | –
COc1ccc(Nc2ncc3c(n2)CCN(Cc2ccccc2C)C3)c(OC)c1 | inconclusive: 3.16 µM [inhibitor, partial curve, poor fit] | –
CC(C)OCCCn1c(=NC(=O)c2ccncc2)c(C#N)cc2c(=O)n3ccccc3nc21 | inactive | –
CCCCC(CCC(=O)O)(C(=O)OCC)c1csc(Nc2ccc(OCC)cc2)n1 (configuration not stated) | inconclusive: 12.6 µM [inhibitor, partial curve] | –
CCOC(=O)CN1C(=O)C(O)=C(C(C)=O)C1c1ccc(F)cc1 (configuration not stated) | inactive | –
CC1CC(C)CN(C(=O)/C(=C\c2ccccc2)c2ccccc2)C1 (configuration not stated) | inactive | –
COc1ccc(C(=O)Nc2ccc(N3CCC(C)CC3)cc2)cc1Br | inconclusive: 5.01 µM [inhibitor, full curve] | –
CCOC(=O)c1cc2c(ccn2C)n1CC(=O)N1CCN(c2ccccc2OC)CC1 | inconclusive: 28.2 µM [inhibitor, single point] | –
CC(=C/C(=O)O)/C=C/c1ccc(Cl)o1 | inconclusive: 39.8 µM [inhibitor, single point] | –
